Source: the supplement of paper PMC12632987
Whole data set: some 2,300 sequences, median “median log2 fold change of GCK-ALFA target abundance (FLAG IP / Myc IP barcode read proportion)” near 0.095, cut for the lowest 2% near -0.47. This is one part of the list.

B1: LC3A_28_646 (protein)
chain: SALDKQLEEALAEARAARERGEPVVVTLTVPGDANQEDVDKILKAMEEIAEILKDVPGSAIIVDIERGVAQEYKDKIIDKGEEIEEKYPNVTVIIALEEE
B2: LC3A_free_8_2539 (protein)
chain: SVQKATTAVTAKLDEAEEELRKKAEELGLDRLDILDLELLVGEVIAEVIGLSDKPISEIRKAVEEGMAEVIKYAAELSPELAELAEKAKKEILAILDELE
B3: LC3A_3_1910 (protein)
chain: MEEKIKELRKQAKELGHSEEVIKLAEEAAKLLLKVGNEEGFELLKKAVKALAKLSEADQLAFLKDLLAELKANANDKEKQLAAAKDFLRLAENAAEIIEI
B4: LC3A_28_983 (protein)
chain: MDPREQVEELIKKAKEAAAKGEATVFTITVTSTATEEDIELITEGLKEIAEILKDVKGSAIIVDVESGVPEEYIDKIAETMEEIEKANPNVTTIIALDED
B5: LC3A_59_2013 (protein)
chain: SEEVEKYVKEAYEKFDDPEKFYETVKKMVEELLKKYSPEELLELVEKEAEKLIEEGKDPKKMQAIVDSVKAVLEIEDEEEKKEEIKLILLEAEIEEIDEE
B6: LC3A_free_46_2327 (protein)
chain: VLVEIEIDLLHENEEKMKKAVEEIEKSIKKIAEKYNAKVNIKVEISKDEDGSYFARIKIEVEAETKEKAQKILTEIIDEIEKIAKKYDISVIISYEIIEK
B7: LC3A_28_868 (protein)
chain: SRIDAIVAAFRAELEADAAEGETMVGHVHISSSMSLEEAVELMERVLAVAREFVERTGRKVVIVIDHDGNQEVLDAVMELAERAEEENPLITVIIALSDE
B8: LC3A_3_1850 (protein)
chain: MEEIIEEIKKLLEELGRSEETIEAALELAELLKERGYEEALKELLEKLKELKDLPDEILLAMFEDILREVKTKDLSEEEVIELIKKEAETAKNEAEIIEL
B9: LC3A_3_1833 (protein)
chain: LEAEVAALLELLRAAGHSEEALEAVRRLAEALAARGYEEALRTFIELLRRLVHLPSELLLELAREALELVETEDLSEEELTARIRELARLYENEGEIEEL
B10: LC3A_3_1637 (protein)
chain: MEEEIKARAERLKAAGHSQETIDAFLETANLLKEKGYYEALKTLIEEMDKLKDLPDEILLDMLKEVKAVVEEPNLTEEEVIKKIKEIARVARNEGEIIEL
B11: LC3A_132_317 (protein)
chain: MEEKYEELRKRAEELLEEAKANINNLEKVKELFEEIRKILEEAQKEVTPEQQAELFDEVADKLDEISLAADAAGQEEVADLADGLAVEAAALSIRAEEKI
B12: LC3A_3_1535 (protein)
chain: MDAEIEAALAELRAAGKSDETLAAFRAAADALKEKGYDEALRTFIAEMRELIDLPDELLLDFALDVLELVETEDISEEELIKRIRELARTIRNEGEIIEL
B13: LC3A_28_784 (protein)
chain: SPLKKNVEEALKEAKKAKEKGESVVITIKVPGDATEEDVEYVIKGLEEIAKILEGVKDQAIVIDVDADVAPEHITKLAEKADEIEEKYPNVTVILALEEK
B14: LC3A_102_164 (protein)
chain: DLEKVVKELTKEALAAMDKAIAAEKSLSPEQKAQARALATTAVNAAAENFLTEAKHGFTDIEAEDTRDDALAALAKINPKLAAALKKLLEEMEKKVKEAA
B15: LC3A_3_1366 (protein)
chain: MEEKIEELLEYLKKEGKSEETLEAVRKTLEALIEKGYEEAAETFIELMKKLSHLPDELLLDFAKEVLEKVENEDLSEEELIEFIKEEAKIAENEAEIIEL
B16: LC3A_free_46_2432 (protein)
chain: YKVNIDIDLLHEDKEVLEKAVKEIVERIKEIAKKHGAEIKIETEISKLEDGSYFAKINATITVDDEETAKKIADEIIDAVEEIAEKYNVSYIISVEIEEK
B17: LC3A_free_46_2413 (protein)
chain: YRVRVLVDTRAAPKEKIEATVKELVEGLREIAARHGARVRIEVEIIENEDGTYSAIIRAEIEAPDLATARAIAAEVGRLIDEIDAKTGLVAMYSIDIEEA
B18: LC3A_13_341 (protein)
chain: TVTLEVETAEELRERGFAALAAHPGETIRITVTVRDEEEAEAIAEVLAELVRAAAEAGSDLEITIRGPRDLVLYVALEVGSEAYEHIDKVTVTITEEVVE
B19: LC3A_127_179 (protein)
chain: STKEEALKLAEKIIELAEKMLDEDTSLEERIELAKKIIEYAKELKKLKPELKEDVDELIELAKEVLKRFEAGEELDEIIEMLIEGIIVTAELIKLKLEEE
B20: LC3A_28_790 (protein)
chain: SKLRENAEKALKEAKEAAAKGISQVITIEVGGDATEEDIDYVIEKLKEIAEVLKDIEGQAIIIDVGKGVSQEHIDKLMKAAEEIEKKYPNVTVIIALEER
B21: LC3A_free_46_2386 (protein)
chain: AEGYLYALAGPADLETLEKLAKEVKKAAEEVAKEYGVEVEVKVEIIKEEDGTYELFIEVKIKGETLETVEKALDAIEERIEEIAKKHGVKVASIISYEED
B22: LC3A_147_496 (protein)
chain: ATVEVDVLVKDKEAAEKVVEEFKKLVEKLKKQGIEVELEVEIEQISPDTWYVKITIKIKAKTEEEEKKVANEVVDEIEKIEEKYKDKILASLISVEIEEK
B23: LC3A_147_453 (protein)
chain: KTYVITVDALFRNDPALAAEVEAEIRAIAEENGAEVEVEREEIQETPTTTLYYLRVTLRTEDEEKALAAEKAVSELLDRVAKEHPEKFLGAIISFEVEED
B24: LC3A_free_39_2245 (protein)
chain: SAAALEAARAEILELAAEEGEEALALAEEVLAILAGDVAATQRLLELLKEIKEDGGDLLAVLKEMVAVARELEAAGASQEEINAAIVEEAEDHLNLIPLD
B25: LC3A_28_1174 (protein)
chain: MATPEELAAALAEARAARAAGEPATVRIRVGGGTTPEETERVIATMREIAELLRDVPGAAILVDIDSGVPQEHIDRLLEEGERIEEEYPNVTVIFALDEE
B26: LC3A_3_1636 (protein)
chain: MEEKIEAREKALRAAGHSEETIEAFRETAELLKEKGYYEALETLIEKMEELLDLPDEILLDMLEEVKRVVEEPDKTEEEVIEEIERIATVARNEGEIEEL
B27: LC3A_147_446 (protein)
chain: YRVEVEIDLLLKNEPEVAKELVEKLKETLEELGVEAEIEVEIEKIDENTVYAEIRIIAEVETLEEAEEVRDALIDTVDEFEEKNKDKILGSLISYEIEEV
B28: LC3A_free_39_2277 (protein)
chain: SMEEHEEVLERLEELAEEMSPEAAANLKELVEIFKDDTEALRRLAEALEEAKEEGADMTEVTKEALEIAKQGKERGLSKEEIAEEVLEEIRDHINLIPLD
B29: LC3A_free_39_2225 (protein)
chain: SEEELEKLIKEVAKESGVDYEELKKKIEEIKKVAGLSNEEILKIVEAILEAVKAGADAKEIVEEALKLAKELKKEGKSPEEILKEILELIEDYRNLVPLD

molecular target: MAP1LC3A, Q9H492; assay: median log2 fold change of GCK-ALFA target abundance (FLAG IP / Myc IP barcode read proportion) (log2 ratio); each designed protein is fused to an ALFA-tag nanobody in HEK293 cells to bring the named protein to FLAG-tagged glucokinase (GCK); Myc marks an untargeted standard; higher = target protein stabilised (more abundant); conditions: target protein: 3xFLAG-MCP-GCK-ALFA reporter; HEK293 landing pad (RPLP)
Outline: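 Binders fused to an ALFA nanobody were recombined as a library into HEK293 landing-pad cells, which were induced with 2 μg mL^−1 doxycycline and then transfected to express a FLAG-tagged target and a Myc-tagged standard. After 48 h, circular RNA barcodes recovered by anti-FLAG and anti-Myc immunoprecipitation of lysates were reverse transcribed, amplified and sequenced. Each binder's target abundance is the median log2 ratio of FLAG to Myc barcode read proportions, from barcodes present at ≥10^−7 in both replicates, binders carrying ≥3 barcodes per replicate, a 10^−6 pseudocount and pooled replicates.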

Binder | median log2 fold change
B1 | -0.0828
B2 | 0.1
B3 | 0.319
B4 | -0.2
B5 | 0.222
B6 | -0.0206
B7 | -0.188
B8 | 0.0641
B9 | 0.276
B10 | 0.322
B11 | -0.303
B12 | 0.049
B13 | 0.137
B14 | 0.00839
B15 | 0.0931
B16 | 0.0908
B17 | 0.000633
B18 | 0.0625
B19 | -0.226
B20 | 0.203
B21 | 0.194
B22 | -0.154
B23 | -0.42
B24 | 0.146
B25 | 0.08
B26 | 0.158
B27 | -0.092
B28 | 0.22
B29 | 0.123
